Test results as given in PubChem BioAssay AID1508624 (National Center for Advancing Translational Sciences (NCATS), 2021).
Hit rate of the full screen: of about 48,000 compounds, about 120 (0.25%) were called active. Inconclusive results (about 4%) are left out. Calls come from the whole dose curve; as a rule, active = well fitted activation curve with a large enough effect; inconclusive = small, poorly fitted or top-dose-only effect, or another doubt; inactive = no such curve, though single readings can be large or run the other way. This is one part of the list.

assay: Primary qHTS for Identification of Small Molecule Activators of Huntingtin-Antisense Promoter Activity; conditions: HEK293 HTT-AS promoter firefly luciferase reporter (activity 0% = vehicle and -100% = no light), 24 h; series mostly up to 57.5 µM; activity change, positive = activation: at the top concentration; note: nearly all actives have a fitted effect of over 55% in size
Procedure, shortened: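 Firefly luciferase readout (Dual-Glo, 10 min RT) after 24 h, 37 °C compound exposure (final up to 57.5 uM) of HEK293 reporter cells cultured 24 h beforehand; PTC124 at 50 uM final as control inhibitor; activity scaled vehicle 0%, zero RLU -100%.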

Activity change, positive = activation, inactive:
CCCC1=Nc2cc(C(=O)N3CCC(C)CC3)ccc2Sc2ccc(C)cc21 -14.9%
CC1=C(C(=O)OC2CCCCCC2)C(c2cccc(Cl)c2)CC(=O)N1 (stereo unspecified) -48.5%
Cc1ccc2c(=O)c(C(=O)c3cccc(Cl)c3)cn(CC(=O)Nc3ccccc3C(F)(F)F)c2n1 -8.6%
CCOC(=O)c1cccc2c1N[C@@H](c1ccc(F)cc1)[C@H]1CC=C[C@@H]21 -17.7%
Cc1ccc(CCNC(=O)c2ccc3c(=O)n(-c4ccccc4)c(=O)[nH]c3c2)cc1 12.6%
Cn1cc(S(=O)(=O)N2CCCCC2)cc1C(=O)Nc1cccc(C#N)c1 -17.4%
O=C(CCCCC(=O)Nc1c(I)cc(I)c(C(=O)O)c1I)Nc1c(I)cc(I)c(C(=O)O)c1I 2.7%
CCCN(C(=O)Cn1ncc2c([nH]c3ccc(C)cc32)c1=O)c1ccccc1C -18%
COc1cccc(N2CC(NC(=O)/C=C\c3ccc(OC)c(OC)c3)CC2=O)c1 (stereo unspecified) -6.25%
CCC(C)NC(=O)CN1C(=O)COc2ccc(S(=O)(=O)N3CCOCC3)cc21 (stereo unspecified) -21.3%
CCOc1ccccc1NC(=O)c1c(NCc2sccc2C)sc2c1CCC(C)C2 (stereo unspecified) -21.9%
O=C(O)c1ccc(-c2cc3cccnc3c(-c3ccc4nonc4c3)n2)cc1 -19.1%
COc1ccc(NC(=O)Cn2cc(S(=O)(=O)Cc3ccc(F)cc3)c3ccccc32)cc1OC -41.3%
Cc1c(CN2CCN(S(C)(=O)=O)CC2)sc2c(N3CCOCC3)nc(-c3cnc(N)nc3)nc12 -44.9%
CCOC(=O)C1CCC(CN(Cc2cccc(Br)c2)S(=O)(=O)c2ccc(Cl)cc2)CC1 (stereo unspecified) -30.3%
CCOC(=O)N1CCc2c(sc3c2C(=O)NC(c2ccccc2F)N3)C1 (stereo unspecified) -12.5%
COc1ccc(N2CC(NC(=O)COc3ccc4ccccc4c3)CC2=O)cc1OC (stereo unspecified) -7.2%
CCN1C(=O)C(Cc2nc3ccccc3c(=O)n2-c2ccc(OC)cc2)c2ccccc21 (stereo unspecified) -1.01%
CCCCC1CCC(C(=O)N2CC(=O)Nc3ccc(Cl)cc3C2c2ccc(F)cc2)CC1 (stereo unspecified) -21.4%
Cc1ccc(-n2c(=O)c3c4c(sc3n(CC(=O)Nc3ccccc3C)c2=O)CCCCC4)cc1C -19.3%
COc1ccccc1CNc1nccn(-c2ccccc2)c1=O 3.52%
CCC(C)NC(=O)c1sc2nc(C)c(C(=O)Nc3ccc(C)cc3C)c(-c3ccccc3Cl)c2c1N (stereo unspecified) 0%
CCN(CC)c1ccc(-c2nc(-c3ccco3)no2)cc1[N+](=O)[O-] -46.3%
COc1ccc(NC(=O)c2cnc(N3CCCCC3)c3ccccc23)cc1Cl -30%
O=C(O)CCC1CCC(c2cc(F)ccc2F)(S(=O)(=O)c2ccc(Cl)cc2)CC1 (stereo unspecified) -15.9%
CCOc1ccccc1NC(=O)c1ccc2c(Cl)c3c(nc2c1)CCCC3 7.24%
